This is one part of the list.
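Note: jurkat cells carrying a lentiviral library of mutant zinc finger degrons fused to EGFP plus mCherry, mCherry+ cells FACS sorted, degron abundance counted by next-generation sequencing.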

This assay concerns the target no compound (DMSO). As to the kind of experiment: log2 fold change of degron read counts, EGFP-low vs EGFP+ sorted cells; higher = lower degron-EGFP level without compound (poor expression or instability). As to conditions: compound: DMSO control; 18 h.
Turning to FACDVCGAQFTQKGNLLRHIKL, the “log2 fold change of degron read counts” value was -1.5.
For LQCEICGFNCTQKGNLLRHIKL the value was -0.235; for FRCPQCGAPFTQKGNLLRHIKL, -0.296; for FLCPQCGADFTQKGNLLRHIKL, -1.82.
For LWCPICGFICTQKGNLLRHIKL the value was 3.31; for FECNQCGHQFTQKGNLLRHIKL, -1.55.
Regarding LFCPICGFACTQKGNLLRHIKL, the “log2 fold change of degron read counts” value is 1.5.
For LWCEICGFGCTQKGNLLRHIKL the value was 1.67; for FHCNICGATFTQKGNLLRHIKL, -0.13.
For FLCEICGHDFTQKGNLLRHIKL the value was -2.1; for FQCNQCGAQFTQKGNLLRHIKL, -1.48.
For FMCPICGAKFTQKGNLLRHIKL the value was -0.285; for FGCEQCGAWFTQKGNLLRHIKL, -0.613; for LYCNQCGFHCTQKGNLLRHIKL, 1.08.
FCCSVCGHKFTQKGNLLRHIKL: the “log2 fold change of degron read counts” value was -0.245.
For FWCEICGRGFTQKGNLLRHIKL, the “log2 fold change of degron read counts” value is -1.49.
For FICPICGAIFTQKGNLLRHIKL the value was 0.726.
Then LVCPICGFGCTQKGNLLRHIKL, with 0.592.
Take FLCDICGACFTQKGNLLRHIKL: the “log2 fold change of degron read counts” value was -1.43.
Then FVCDQCGAAFTQKGNLLRHIKL, with -2.51; and LCCNQCGFFCTQKGNLLRHIKL, with 2; and LACNQCGFECTQKGNLLRHIKL, with -0.903.
For the sequence FTCPVCGANFTQKGNLLRHIKL, the “log2 fold change of degron read counts” value is -0.558.
For FFCDVCGAPFTQKGNLLRHIKL the value was -0.43; for FSCEICGRWFTQKGNLLRHIKL, -0.108; for FNCNVCGAIFTQKGNLLRHIKL, 0.0151.
Then FCCEICGHNFTQKGNLLRHIKL, with -1.62; and FMCNVCGASFTQKGNLLRHIKL, with -1.06; and LNCPICGFFCTQKGNLLRHIKL, with 1.8.
FHCEVCGANFTQKGNLLRHIKL: the “log2 fold change of degron read counts” value was -2.77.
Then FNCEQCGAYFTQKGNLLRHIKL, with -0.517; and FTCDICGAYFTQKGNLLRHIKL, with -1.26.

The values above are taken from the supplement of paper PMC12645437, “Orthogonal IMiD-Degron Pairs Induce Selective Protein Degradation in Cells” (ACS Chemical Biology, 2025).
